This note sets out measurements from patent publication US20190209704A1, “NOVEL ANTIBODY-DRUG CONJUGATES AND RELATED COMPOUNDS, COMPOSITIONS AND METHODS OF USE” (IGENICA BIOTHERAPEUTICS, INC., priority 2014, published 2019).

The target in this assay is T1, CD98 purified antigen (Homo sapiens, UniProt P08195).
T1 sequence (P08195 1-529): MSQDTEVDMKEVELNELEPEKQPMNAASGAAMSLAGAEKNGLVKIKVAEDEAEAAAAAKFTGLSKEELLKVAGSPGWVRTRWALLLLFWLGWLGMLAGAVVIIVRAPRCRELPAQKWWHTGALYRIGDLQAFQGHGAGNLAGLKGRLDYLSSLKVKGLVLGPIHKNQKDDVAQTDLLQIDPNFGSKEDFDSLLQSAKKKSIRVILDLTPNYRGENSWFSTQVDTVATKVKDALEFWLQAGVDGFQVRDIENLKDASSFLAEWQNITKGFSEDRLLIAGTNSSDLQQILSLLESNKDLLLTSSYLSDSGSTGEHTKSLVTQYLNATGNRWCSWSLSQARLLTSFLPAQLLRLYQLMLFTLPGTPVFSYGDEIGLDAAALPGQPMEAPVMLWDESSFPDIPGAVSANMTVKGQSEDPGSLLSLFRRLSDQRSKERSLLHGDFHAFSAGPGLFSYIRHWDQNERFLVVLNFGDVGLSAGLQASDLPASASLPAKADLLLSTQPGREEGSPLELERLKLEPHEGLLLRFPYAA
Briefly: antigen binding affinity via SPR, CD98. Conditions: Table 7.

B1: IGN523: exemplary anti-CD98 antibody, VH SEQ ID NO: 3, VL SEQ ID NO: 4 (antibody, V domains shown)
VH: MEWSWVFLFFLSVTTGVHSQVQLVQSGAEVKKPGSSVKVSCKASGNAFTNYLIEWVRQAPGQGLEWMGVINPGSGITNYNEKFKGKATITADKSTSTAYMELSSLRSEDTAVYYCSGSANWFAYWGQGTLVTVSS
VL: MSVPTQVLGLLLLWLTDARCDIVMTQSPDSLAVSLGERATINCKSSQSLLYSSNQKNYLAWYQQKPGQPPKLLIYWASTRDSGVPDRFTGSGSGTDFTLTISSLQAEDVAVYYCQRYYGYPWTFGGGTKVEIK
modifications: heavy chain variable region sequence of an exemplary anti-CD98 antibody designated as IGN523; light chain variable region sequence of an exemplary anti-CD98 antibody designated as IGN523
One may read the Kd as the concentration at which binding is half-saturated. Molecule B1 yielded a Kd of 0.14 nM. This lies in the sub-nanomolar range.
